Source: PubChem BioAssay AID1347165 (National Center for Advancing Translational Sciences (NCATS), 2019)
Among all 220,000 compounds or so, about 5,700 (2.6%) were called active. The shares of active, inactive and inconclusive entries below differ from those in the screen. Calls come from the whole dose curve; as a rule, active = well fitted inhibition curve with a large enough effect; inconclusive = small, poorly fitted or top-dose-only effect; inactive = no such curve, though single readings can be large or run the other way. Potencies beside an inconclusive call are fits to weak or partial responses and may not hold up.

Biological target: Lysine-specific demethylase 5B (Homo sapiens) (UniProt Q9UGL1)
Chain of UniProt Q9UGL1 (Q9UGL1 whole entry, looked up): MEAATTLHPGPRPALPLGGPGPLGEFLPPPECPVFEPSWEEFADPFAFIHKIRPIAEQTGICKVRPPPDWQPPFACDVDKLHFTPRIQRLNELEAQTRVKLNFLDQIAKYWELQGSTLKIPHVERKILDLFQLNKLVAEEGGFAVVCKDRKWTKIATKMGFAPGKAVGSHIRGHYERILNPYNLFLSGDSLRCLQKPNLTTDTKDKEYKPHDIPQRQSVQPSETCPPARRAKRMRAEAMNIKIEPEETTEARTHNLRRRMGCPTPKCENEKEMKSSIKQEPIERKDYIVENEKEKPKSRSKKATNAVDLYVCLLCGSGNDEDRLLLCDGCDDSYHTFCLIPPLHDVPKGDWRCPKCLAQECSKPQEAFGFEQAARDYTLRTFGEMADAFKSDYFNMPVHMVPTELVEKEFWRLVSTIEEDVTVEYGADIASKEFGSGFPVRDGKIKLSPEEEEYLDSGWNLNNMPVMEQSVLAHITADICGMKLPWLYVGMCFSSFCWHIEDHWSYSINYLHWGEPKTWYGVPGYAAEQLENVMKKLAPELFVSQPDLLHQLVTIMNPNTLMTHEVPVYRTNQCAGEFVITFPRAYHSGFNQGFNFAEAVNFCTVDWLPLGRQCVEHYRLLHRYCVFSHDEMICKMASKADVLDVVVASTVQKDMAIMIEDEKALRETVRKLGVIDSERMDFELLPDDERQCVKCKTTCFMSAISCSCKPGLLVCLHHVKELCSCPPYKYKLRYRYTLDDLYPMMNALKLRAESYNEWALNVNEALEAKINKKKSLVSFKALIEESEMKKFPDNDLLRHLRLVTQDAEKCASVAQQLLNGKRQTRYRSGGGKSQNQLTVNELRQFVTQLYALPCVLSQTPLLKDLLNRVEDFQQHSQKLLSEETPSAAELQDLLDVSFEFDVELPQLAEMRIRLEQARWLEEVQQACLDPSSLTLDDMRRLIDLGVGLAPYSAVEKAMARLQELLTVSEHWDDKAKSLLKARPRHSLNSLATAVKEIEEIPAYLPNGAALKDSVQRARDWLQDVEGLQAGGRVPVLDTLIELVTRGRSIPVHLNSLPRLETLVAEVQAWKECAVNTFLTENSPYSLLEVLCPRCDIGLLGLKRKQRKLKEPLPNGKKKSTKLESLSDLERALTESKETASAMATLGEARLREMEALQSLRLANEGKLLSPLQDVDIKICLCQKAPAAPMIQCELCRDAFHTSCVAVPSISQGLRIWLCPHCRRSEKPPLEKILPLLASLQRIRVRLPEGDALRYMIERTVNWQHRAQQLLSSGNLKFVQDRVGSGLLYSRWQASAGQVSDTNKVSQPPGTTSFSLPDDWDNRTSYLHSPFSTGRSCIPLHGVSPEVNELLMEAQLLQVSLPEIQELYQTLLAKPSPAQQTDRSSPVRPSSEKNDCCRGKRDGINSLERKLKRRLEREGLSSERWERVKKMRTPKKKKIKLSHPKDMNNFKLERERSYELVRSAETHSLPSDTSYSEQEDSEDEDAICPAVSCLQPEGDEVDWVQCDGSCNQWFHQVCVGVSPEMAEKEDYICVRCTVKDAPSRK
Assay: Primary screen for KDM5B Histone Demethylases FDH-coupled qHTS; note: nearly all actives have a fitted effect of over 70% in size; for activity change, negative = inhibition: 0% is about no effect
Conditions: FDH-coupled NADH fluorescence (FDH is formaldehyde dehydrogenase); activity change, negative = inhibition: at 57.7 µM (top of the series) unless noted
Method in brief: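 Inhibition is measured as reduced NADH fluorescence generation from FDH coupling to formaldehyde release. Truncated KDM5BΔAP at 200 nM final acts on H3K4me3 peptide (12.5 µM in substrate mix) in pH 7.5 HEPES buffer with Tween-20, 30 min, room temperature.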
Potency is the fitted concentration of half-maximal effect; tags give direction and shape of the fitted curve.

Row | SMILES | Potency | activity change, negative = inhibition
1 | CN1CCOc2c(C(=O)NCc3cccnc3)cc(-c3ccc(CO)cc3)cc21 | active: 39.8 µM | 
2 | COc1ccc(N2CCN(C(=O)Cn3nc(C)c4sc(C(C)C)nc4c3=O)CC2)cc1 | inactive | 
3 | Cc1ccc(NC(=O)c2ccc(Cn3ccn4nc5c(c4c3=O)CCCC5)cc2)cc1C | active: 25.1 µM | 
4 | CC(C)CNC(=O)C(Cc1ccccc1)NC(=O)c1ccccc1 (stereo not given) | inactive | 
5 | COc1cccc(C(=O)N2CCN(c3nc4ncccc4o3)CC2)c1 | inconclusive: 28.2 µM [inhibitor, partial curve, poor fit] | 
6 | CC/C(C)=N/NC(=O)c1ccc(C(C)(C)C)cc1 | inactive | 
7 | CN1CC(=O)N(C2CCC2)Cc2c1ncnc2N1CCC(Cc2ccccc2)CC1 | inactive | 
8 | Cn1c(=O)c2nc(SCC(=O)NCc3ccccc3Cl)n(C)c2n(C)c1=O | inactive | 
9 | Cn1c2c(c3cc(F)ccc31)CN(C(=O)Nc1ccc(Cl)cc1Cl)CC2 | inconclusive: 35.5 µM [inhibitor, single point] | 
10 | C=CCNc1oc(/C=C/c2ccc(OC)c(OC)c2)nc1C#N | inconclusive: 28.2 µM [inhibitor, partial curve, poor fit] | 
11 | CN1CCN(S(=O)(=O)c2ccc(F)cc2F)CC12CCNC(=O)CC2 (stereo not given) | inactive | 
12 | Cc1ccccc1N1Cc2c(NC3CCCCCC3)ncnc2N(C)CC1=O | inconclusive: 22.4 µM [inhibitor, partial curve, poor fit] | 
13 | Cc1noc2c(N3CC[S+](=O)([O-])CC3)cc(-c3cccs3)nc12 | inconclusive: 39.8 µM [inhibitor, partial curve, poor fit] | 
14 | CC(Sc1ncnc2nc[nH]c12)C(=O)Nc1cccc2ccccc12 (stereo not given) | inactive | 
15 | CC(C)(C)NC(=O)c1cc(-c2cccs2)nc2ccccc12 | inconclusive: 28.2 µM [inhibitor, partial curve, poor fit] | 
16 | OCc1nc2ccccc2s1 | inactive | 
17 | Cc1ccc(-c2ccc3nnc(CNC(=O)Cc4cccc(C)c4)n3n2)cc1 | inconclusive: 3.55 µM [inhibitor, partial curve, poor fit] | 
18 | O=C(OCc1ncc(-c2ccc(Cl)cc2)o1)c1cccc(F)c1 | inactive | 
19 | COc1cccc(C2CC(=O)Nc3c2c(=O)[nH]c2nc4ccccc4n32)c1 (stereo not given) | inconclusive: 0.794 µM [inhibitor, full curve, poor fit] | 
20 | O=C(NN=C1CCCC1)c1ccc(CSc2cccc3cccnc23)cc1 | inconclusive: 28.2 µM [inhibitor, single point] | 
21 | Cc1ccccc1/C=N/Nc1nc2ccccc2c(=O)n1O | inconclusive: 28.2 µM [inhibitor, partial curve, poor fit] | 
22 | Cc1ccsc1C(=O)/C(C#N)=C\c1ccc(OC(F)F)cc1 | inconclusive: 39.8 µM [inhibitor, single point] | 
23 | CCC(C)NC(=O)C(=O)N1CCN(c2nc(C)c3c(c2C#N)CCCC3)CC1 (stereo not given) | inconclusive: 28.2 µM [inhibitor, partial curve, poor fit] | 
24 | COc1cc(C(C)=O)ccc1OCc1ccc(F)cc1Cl | inactive | 

Row | SMILES | Potency | activity change, negative = inhibition
25 | COc1ccc(CN2C[C@@H]3OCC(=O)N(c4ccccc4)[C@@H]3C2)cc1 | inconclusive: 35.5 µM [inhibitor, partial curve, poor fit] | 
26 | CSc1nc(Nc2ccc(F)cc2)cc(-c2ccccc2)n1 | inconclusive: 35.5 µM [inhibitor, partial curve, poor fit] | 
27 | CCOc1ccc(-c2nn(-c3ccccc3)cc2C2NC(=O)NC(C)=C2C(=O)OC(C)C)cc1 (stereo not given) | inconclusive: 35.5 µM [inhibitor, single point] | 
28 | COc1ncccc1-c1cc2c(ccn2Cc2ccncc2)c(N2CCOCC2)n1 | active: 7.94 µM | 
29 | COc1ccccc1/C=C/C(=O)OCCN(C)C | inconclusive: 25.1 µM [inhibitor, partial curve, poor fit] | 
30 | CCN(CC)S(=O)(=O)NC1CCN(c2ncccn2)CC1 | inconclusive: 28.2 µM [inhibitor, partial curve, poor fit] | 
31 | CC(C)c1nc2cc(NC(=O)Cc3ccc([N+](=O)[O-])cc3)ccc2o1 | inactive | 
32 | O=C(Nc1ncc(Cc2ccccc2)s1)C1CC(=O)N(Cc2ccco2)C1 (stereo not given) | inactive | 
33 | CCn1c(=O)cc(SCC(=O)NCc2cccc(Cl)c2)c2ccccc21 | inconclusive: 17.8 µM [inhibitor, partial curve, poor fit] | 
34 | Cc1ccc2c(Cl)cc(Cl)c(OCC(=O)NC(=O)NCc3ccccc3)c2n1 | inactive | 
35 | COc1ccccc1C(=O)N1c2ncnn2C2(CCCCC2)[C@@H]2CCCC[C@@H]21 | inactive | 
36 | O=C1CC(c2ccc(Cl)cc2)c2sc(C(=O)O)c(-c3ccc(F)cc3)c2N1 (stereo not given) | inactive | 
37 | CCN1C(=O)c2ccccc2Sc2ccc(NC(=O)N3CCN(c4cc(C)ccc4C)CC3)cc21 | inconclusive: 6.31 µM [inhibitor, partial curve, poor fit] | 
38 | CCc1cc2c(CN3CCN(Cc4ccccc4)CC3)cc(=O)oc2cc1O | inconclusive: 25.1 µM [inhibitor, partial curve, poor fit] | 
39 | O=C(O)c1ccc2c(c1)c(C(C(=O)O)N1CCN(Cc3cccnc3)CC1)cn2Cc1ccccc1 (stereo not given) | inactive | 
40 | CCCNC(=O)Cc1csc2nc(C)c(-c3cc(C)n(-c4ccc(Cl)c(Cl)c4)n3)c(=O)n12 | active: 28.2 µM | 
41 | CC1(C)CN(C(=O)c2cnc(N3CCOCC3)nc2)C[C@]1(C)O | inconclusive: 11.2 µM [inhibitor, partial curve, poor fit] | 
42 | CCn1ccc(C(=O)N2CCCC(c3nnnn3C)C2)n1 (stereo not given) | inconclusive: 22.4 µM [inhibitor, partial curve] | 
43 | CCOC(=O)c1cccc(NC(=O)NCc2c(-n3cccc3)sc3c2CCN(CC)C3)c1 | inconclusive: 31.6 µM [inhibitor, single point] | 
44 | COc1cc(-c2nc3ccccn3c2Nc2ccc3c(c2)OCO3)cc(OC)c1O | inconclusive: 28.2 µM [inhibitor, partial curve, poor fit] | 
45 | O=C(Nc1cccc(-c2ccc(N3CCCC3)nn2)c1)c1c(F)cccc1F | inconclusive: 28.2 µM [inhibitor, single point] | 
46 | Cc1ccc2cccc(NC(=O)c3ccc(OC(C)C)cc3)c2n1 | inconclusive: 7.94 µM [inhibitor, partial curve, poor fit] | 
47 | CCc1ccccc1NC(=O)CN(c1ccccc1)S(=O)(=O)c1ccsc1C(=O)OC |  | inconclusive: -32% [inhibitor]
48 | COc1ccc(C(=O)N[C@H]2CO[C@H]3[C@@H]2OC[C@@H]3n2nnnc2-c2cccc(OC)c2)cc1 | inactive | 

Row | SMILES | Potency | activity change, negative = inhibition
49 | CCC(=O)C1=C(c2ccc(F)cc2)N(C(=O)CC)n2cnnc2S1 | inconclusive: 17.8 µM [inhibitor, partial curve, poor fit] | 
50 | COc1ccc2cc(C(=O)N(C)C3CCc4nn(C)c(=O)n4CC3)[nH]c2c1 (stereo not given) | inactive | 
51 | CCOCCCNC(=O)C(c1ccccc1)N(Cc1ccc2c(c1)OCO2)C(=O)c1ccc(NC(C)=O)cc1 (stereo not given) | inconclusive: 35.5 µM [inhibitor, single point] | 
52 | O=C(O)c1ccc(COc2cccc(Cl)c2)cc1 | inactive | 
53 | CCC(Nc1ccc2oc(C)nc2c1)C(=O)Nc1ccc(F)cc1 (stereo not given) | inconclusive: 39.8 µM [inhibitor, single point] | 
54 | O=C(c1ccco1)N(Cc1cccnc1)c1nc2c(F)cc(F)cc2s1 | inconclusive: 17.8 µM [inhibitor, single point] | 
55 | COc1ccc(C(C(=O)NCc2ccccc2)N(C(=O)c2snc(C(N)=O)c2N)c2ccccc2OC)cc1OC (stereo not given) | inconclusive: 28.2 µM [inhibitor, partial curve, poor fit] | 
56 | Cc1cc(C(=O)Nc2ccc(I)cc2)c(C)o1 | inconclusive: 25.1 µM [inhibitor, single point] | 
57 | CCCCn1nc(C(=O)N2CCC(C(=O)N3CCc4ccccc4C3)CC2)c2ccccc2c1=O | inactive | 
58 | CCCNc1c(NC(=O)NCCCOC)c(=O)oc2ccccc12 | inactive | 
59 | COc1ccc(-c2nnc3sc(-c4cc(C(C)(C)C)nn4C)nn23)cc1OC | inactive | 
60 | Cc1cc(C(=O)N2CCC(c3nc(-c4ccccc4)no3)C2)n[nH]1 (stereo not given) | inconclusive: 11.2 µM [inhibitor, partial curve] | 
61 | CCc1ccc(S(=O)(=O)N2CCC3(CC2)NC(=O)c2ccccc2N3)cc1 | inconclusive: 2 µM [inhibitor, full curve, poor fit] | 
62 | CCc1ccc(NC(=O)Cn2nc(-c3ccc(C)c(S(=O)(=O)N4CCOCC4)c3)ccc2=O)cc1 | inactive | 
63 | Cc1ccc2[nH]c3c(=O)n(N)c(=O)[nH]c3c2c1 | inconclusive: 31.6 µM [inhibitor, partial curve, poor fit] | 
64 | Cc1ccc(C(=O)N2CCC3(CC2)CC(N(C(=O)NC(C)C)C2CC2)CCO3)cn1 (stereo not given) | inactive | 
65 | CCc1ccc(NC(=O)CSc2nccn2-c2ccc(F)cc2)cc1 | inactive | 
66 | COc1cccc(/C(C)=N/NC(=O)C2CC2)c1 | inactive | 
67 | COc1ccc(N2CC(NC(=O)/C=C\c3ccc4c(c3)OCO4)CC2=O)cc1OC (stereo not given) | inconclusive: 25.1 µM [inhibitor, partial curve, poor fit] | 
68 | CCc1ccccc1NC(=O)CNCC(=O)Nc1ccccc1CC | inconclusive: 39.8 µM [inhibitor, single point] | 
69 | CN(Cc1ccccc1)C(=O)c1cc(=O)[nH]c2ccccc12 | inconclusive: 39.8 µM [inhibitor, single point] | 
70 | CCCCc1cc(=O)oc2c(C)c(OC(C)C(=O)NCc3cccnc3)ccc12 (stereo not given) | inconclusive: 20 µM [inhibitor, partial curve, poor fit] | 
